Assay results: the supplement of paper PMC8183993
Several values for one entry are separate records, joined by “and”; a condition that tells them apart may be missing. Equal values may be shown once. Where a name gives a salt, the structure may show the parent alone. ± gives the standard deviation of the averaged measurements. Whole data set: some 3,100 compounds, median “mean cytoplasmic OPP incorporation (global translation) relative to DMSO” near 100, cut for the lowest 2% near 56. The list shows a part of the results.

System: U2OS
Assay: mean cytoplasmic OPP incorporation (global translation) relative to DMSO (% of DMSO); higher = more protein synthesis
Settings: 10 µM; 24 h
Description: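 Primary image-based screen in U2OS cells: compounds at 10 uM for 24 h, then a 1 h o-propargyl-puromycin (OPP) pulse, click labelling, and high-throughput microscopy. Mean cytoplasmic OPP intensity and nuclei count were normalised to DMSO wells within each plate (DMSO = 100) and averaged over triplicate plates.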

Q: How did the “mean cytoplasmic OPP incorporation” value turn out when `COc1ccc2c(c1)C(=O)N(CCc1ccc(S(=O)(=O)NC(=O)NC3CCCCC3)cc1)C(=O)C2(C)C` [Gliquidone] was run?
A: 106

Q: For `C=CCc1ccc(O)c(-c2cc(CC=C)ccc2O)c1` [Magnolol], which “mean cytoplasmic OPP incorporation” value is on record?
A: 102

Q: How did the “mean cytoplasmic OPP incorporation” value turn out when `CN(C)CCN(Cc1ccc(Cl)cc1)c1ccccn1` [Chloropyramine hydrochloride] was run?
A: 106

Q: For `CC(=N)NCc1cccc(CN)c1` [1400W dihydrochloride], which “mean cytoplasmic OPP incorporation” value is on record?
A: 98.4

Q: For `CC(C)c1cccc(=O)c(O)c1` [Hinokitiol], which “mean cytoplasmic OPP incorporation” value is on record?
A: 96.3

Q: With `NS(=O)(=O)Cc1noc2ccccc12` [Zonisamide] as the compound, how does the “mean cytoplasmic OPP incorporation” value read?
A: 103 ± 3.8

Q: `CC(C)C[C@H](NC(=O)N[C@H](C(=O)N[C@@H](CCC(N)=O)C(=O)N[C@@H](C)C=O)[C@@H]1CCNC(=N)N1)C(=O)O` [Elastatinal] was tested. Which “mean cytoplasmic OPP incorporation” value did it give?
A: 98.9

Q: With `CC(C[N+](C)(C)C)OC(N)=O` (stereo unspecified) [Bethanechol chloride] as the compound, how does the “mean cytoplasmic OPP incorporation” value read?
A: 114

Q: How did the “mean cytoplasmic OPP incorporation” value turn out when `Cc1ccc2nc(NCCN)c3ncc(C)n3c2c1` was run?
A: 56.1

Q: `Cc1c(NC(=O)OC[C@@H]2COCCN2)cn2ncnc(Nc3ccc4c(cnn4Cc4cccc(F)c4)c3)c12` was tested. Which “mean cytoplasmic OPP incorporation” value did it give?
A: 110

Q: How did the “mean cytoplasmic OPP incorporation” value turn out when `NCCC(O)(P(=O)(O)O)P(=O)(O)O` [Pamidronate Disodium] was run?
A: 93.2

Q: Which “mean cytoplasmic OPP incorporation” value does the source give for `CC(C)Oc1cc(Nc2nc(N[C@@H](C)c3ccc(F)cn3)ncc2Cl)n[nH]1` here?
A: 110

Q: How did the “mean cytoplasmic OPP incorporation” value turn out when `CC1=CC(=O)c2ccccc2C1=O` [Menadione] was run?
A: 95.2

Q: How did the “mean cytoplasmic OPP incorporation” value turn out when `CC(=O)/N=c1/sc(S(N)(=O)=O)nn1C` [Methazolamide] was run?
A: 106

Q: `N=C(N)N1CCc2ccccc2C1` [Debrisoquin sulfate] was tested. Which “mean cytoplasmic OPP incorporation” value did it give?
A: 100

Q: For `Cc1ccc(C(=O)N(CCCN)[C@@H](c2nc3cc(Cl)ccc3c(=O)n2Cc2ccccc2)C(C)C)cc1`, which “mean cytoplasmic OPP incorporation” value is on record?
A: 77.9

Q: `CCCc1nc2c(C)cc(-c3nc4ccccc4n3C)cc2n1Cc1ccc(-c2ccccc2C(=O)O)cc1` [Telmisartan] was tested. Which “mean cytoplasmic OPP incorporation” value did it give?
A: 115

Q: For `CCCCOC(=O)c1ccc(O)cc1` [Butylparaben], which “mean cytoplasmic OPP incorporation” value is on record?
A: 92

Q: For `COCCCOc1cc(C[C@@H](C[C@H](N)[C@@H](O)C[C@H](C(=O)NCC(C)(C)C(N)=O)C(C)C)C(C)C)ccc1OC` [Aliskiren hemifumarate], which “mean cytoplasmic OPP incorporation” value is on record?
A: 98.8

Q: With `CNCCCCOc1ccccc1Cc1ccccc1` [Bifemelane hydrochloride] as the compound, how does the “mean cytoplasmic OPP incorporation” value read?
A: 107

Q: How did the “mean cytoplasmic OPP incorporation” value turn out when `Nc1ncnc2c1nc(Br)n2[C@@H]1O[C@@H]2COP(=O)(O)O[C@H]2[C@H]1O` [8-Bromo-cAMP, sodium salt] was run?
A: 104

Q: With `CCCCC1C(=O)N(c2ccccc2)N(c2ccccc2)C1=O` [Phenylbutazone] as the compound, how does the “mean cytoplasmic OPP incorporation” value read?
A: 102

Q: With `COc1cc2ncnc(Nc3ccc(F)c(Cl)c3)c2cc1NC(=O)/C=C/CN1CCCCC1` as the compound, how does the “mean cytoplasmic OPP incorporation” value read?
A: 103 and 108

Q: With `Nc1nccc(-c2ccc3noc(-c4ccc(Cl)cc4)c3c2)n1` [PIM 1 Inhibitor 2] as the compound, how does the “mean cytoplasmic OPP incorporation” value read?
A: 105

Q: Which “mean cytoplasmic OPP incorporation” value does the source give for `O=C(CCCCC(=O)Nc1c(I)cc(I)c(C(=O)O)c1I)Nc1c(I)cc(I)c(C(=O)O)c1I` [Iodipamide] here?
A: 92.3

Q: For `CC(C)C1C2CCC(C2)C1N` (stereo unspecified), which “mean cytoplasmic OPP incorporation” value is on record?
A: 109

Q: For `CO[C@@H]1[C@H](O)[C@@H](CO)O[C@H]1n1cnc2c(NC3CCCCC3)ncnc21`, which “mean cytoplasmic OPP incorporation” value is on record?
A: 91.9

Q: `CNCC[C@@H](Oc1ccccc1C)c1ccccc1` [Tomoxetine hydrochloride] was tested. Which “mean cytoplasmic OPP incorporation” value did it give?
A: 99.9 ± 2.1

Q: For `O=C(O)Cc1cc(I)c(Oc2ccc(O)c(I)c2)c(I)c1` [Tiratricol, 3,3',5-triiodothyroacetic acid], which “mean cytoplasmic OPP incorporation” value is on record?
A: 96.6

Q: `Cc1cc(Nc2ncc(Cl)c(Nc3ccccc3S(=O)(=O)C(C)C)n2)c(OC(C)C)cc1C1CCNCC1` [Ceritinib (LDK378)] was tested. Which “mean cytoplasmic OPP incorporation” value did it give?
A: 25.4

Q: Which “mean cytoplasmic OPP incorporation” value does the source give for `COCCCOc1ccnc(C[S+]([O-])c2nc3ccccc3[nH]2)c1C` (stereo unspecified) [Rabeprazole Sodium salt] here?
A: 98.3

Q: How did the “mean cytoplasmic OPP incorporation” value turn out when `C[C@@H](Oc1cc(-c2cnn(C3CCNCC3)c2)cnc1N)c1c(Cl)ccc(F)c1Cl` was run?
A: 92.6

Q: `Cn1cc(/C=C/C(=O)c2cccc(F)c2)cc1/C=C/C(=O)NO` was tested. Which “mean cytoplasmic OPP incorporation” value did it give?
A: 88.4

Q: `N=C(N=C(N)N)N1CCOCC1` [Moroxidine hydrochloride] was tested. Which “mean cytoplasmic OPP incorporation” value did it give?
A: 91.2

Q: For `CC(=O)OCC(=O)[C@@]12OC3(CCCC3)O[C@@H]1C[C@H]1[C@@H]3CCC4=CC(=O)C=C[C@]4(C)[C@@]3(F)[C@@H](O)C[C@@]12C` [Amcinonide], which “mean cytoplasmic OPP incorporation” value is on record?
A: 101

Q: `COc1nc(C)cnc1NS(=O)(=O)c1cccnc1-c1ccc(-c2nnco2)cc1` [Zibotentan (ZD4054)] was tested. Which “mean cytoplasmic OPP incorporation” value did it give?
A: 110

Q: How did the “mean cytoplasmic OPP incorporation” value turn out when `Cn1cc(C2=C(c3cn(CCCSC(=N)N)c4ccccc34)C(=O)NC2=O)c2ccccc21` [Ro 31-8220 mesylate] was run?
A: 62.4

Q: With `Cn1cc(C2=C(c3cn(CCCSC(=N)N)c4ccccc34)C(=O)NC2=O)c2ccccc21` [Ro 31-8220 Mesylate] as the compound, how does the “mean cytoplasmic OPP incorporation” value read?
A: 30.3

Q: `Nc1ccccc1NC(=O)CCCCCCC(=O)Nc1ccccc1` was tested. Which “mean cytoplasmic OPP incorporation” value did it give?
A: 92.9

Q: Which “mean cytoplasmic OPP incorporation” value does the source give for `N[C@@H](CC(=O)N1CCn2c(nnc2C(F)(F)F)C1)Cc1cc(F)c(F)cc1F` [Sitagliptin phosphate monohydrate] here?
A: 89.2

Q: Which “mean cytoplasmic OPP incorporation” value does the source give for `CC(C)(C)OC(=O)N[C@H]1CCCCC/C=C\[C@@H]2C[C@@]2(C(=O)NS(=O)(=O)C2CC2)NC(=O)[C@@H]2C[C@@H](OC(=O)N3Cc4cccc(F)c4C3)CN2C1=O` [Danoprevir] here?
A: 99

Q: With `CC1(C)C(=O)N(CCN2CCC(C(=O)c3ccc(F)cc3)CC2)c2ccccc21` as the compound, how does the “mean cytoplasmic OPP incorporation” value read?
A: 117

Q: `NC(=O)Nc1sc(-c2ccc(F)cc2)cc1C(N)=O` was tested. Which “mean cytoplasmic OPP incorporation” value did it give?
A: 76.5 ± 9.7

Q: With `CCN(CC)CC1CCCCN1CC(=O)N1c2ccccc2C(=O)Nc2cccnc21` (stereo unspecified) as the compound, how does the “mean cytoplasmic OPP incorporation” value read?
A: 108

Q: Which “mean cytoplasmic OPP incorporation” value does the source give for `C[C@H](CCC(=O)O)[C@H]1CC[C@H]2[C@@H]3C[C@H](O)[C@@H]4C[C@H](O)CC[C@]4(C)[C@H]3CC[C@]12C` [Hyodeoxycholic acid (HDCA)] here?
A: 98.3

Q: For `O=C(Nc1ccccc1)OCC(CN1CCCCC1)OC(=O)Nc1ccccc1` (stereo unspecified) [Diperodon hydrochloride], which “mean cytoplasmic OPP incorporation” value is on record?
A: 107

Q: `CC(=O)Nc1ccc(OCC(O)CNC(C)C)cc1` (stereo unspecified) [Practolol] was tested. Which “mean cytoplasmic OPP incorporation” value did it give?
A: 107

Q: Which “mean cytoplasmic OPP incorporation” value does the source give for `CO/N=C(\C(=O)N[C@@H]1C(=O)N2C(C(=O)O)=C(CSC(=O)c3ccco3)CS[C@H]12)c1csc(N)n1` [Ceftiofur HCl] here?
A: 99.5

Q: Which “mean cytoplasmic OPP incorporation” value does the source give for `N[C@@H]1CCN(O)C1=O` here?
A: 97.8

Q: With `CN1[C@@H]2CC[C@H]1C[C@@H](OC(c1ccccc1)c1ccccc1)C2` [Benztropine mesylate] as the compound, how does the “mean cytoplasmic OPP incorporation” value read?
A: 108 ± 4.4

Q: With `O=C1NN(C(=O)Nc2ccc(Br)cc2)[C@@H](c2ccccc2)[C@@H]1c1ccccc1` as the compound, how does the “mean cytoplasmic OPP incorporation” value read?
A: 94.8
